{"source": "the BET-seq Pho4 binding data (Le et al. 2018)", "note": "This is one part of the list. The energies were worked out here from pooled read counts, against the library average; single values are noisy."}
{"target": "T1, Pho4 (S. cerevisiae) (UniProt P07270)", "T1 sequence": "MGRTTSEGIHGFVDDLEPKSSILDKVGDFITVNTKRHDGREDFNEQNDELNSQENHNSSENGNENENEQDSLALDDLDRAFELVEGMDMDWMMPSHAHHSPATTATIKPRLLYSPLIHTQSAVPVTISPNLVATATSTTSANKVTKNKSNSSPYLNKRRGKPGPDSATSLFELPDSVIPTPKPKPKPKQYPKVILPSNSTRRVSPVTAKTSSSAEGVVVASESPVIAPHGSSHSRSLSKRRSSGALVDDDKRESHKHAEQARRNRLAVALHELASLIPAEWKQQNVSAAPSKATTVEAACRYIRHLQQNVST", "experiment": "relative binding free energy (BET-seq); higher = weaker binding", "details": "reference: library average", "units": {"relative binding free energy": "kcal/mol"}}
{"sequence": "GGTGACACGTGGTCGA", "relative binding free energy": -0.06}
{"sequence": "GTCTACACGTGATTTG", "relative binding free energy": 0.45}
{"sequence": "AAGTTCACGTGGCTAT", "relative binding free energy": 0.26}
{"sequence": "CGAGTCACGTGGTGTC", "relative binding free energy": 0.11}
{"sequence": "TTTGTCACGTGGCGGT", "relative binding free energy": 0.12}
{"sequence": "ATTTTCACGTGGCGTG", "relative binding free energy": 0.14}
{"sequence": "CGTCGCACGTGTTGTT", "relative binding free energy": -0.07}
{"sequence": "ACTTGCACGTGATGTG", "relative binding free energy": 0.12}
{"sequence": "CTATTCACGTGAGTTT", "relative binding free energy": 0.34}
{"sequence": "TACGACACGTGGGCGG", "relative binding free energy": -0.09}
{"sequence": "ATAGACACGTGGGAGT", "relative binding free energy": -0.08}
{"sequence": "GGCAGCACGTGGTAGA", "relative binding free energy": -0.09}
{"sequence": "GGTTTCACGTGTGGCA", "relative binding free energy": 0.24}
{"sequence": "GTGGACACGTGGATAT", "relative binding free energy": 0.14}
{"sequence": "ATCCGCACGTGGTGGG", "relative binding free energy": -0.13}
{"sequence": "TGCTTCACGTGTTATG", "relative binding free energy": 0.2}
{"sequence": "TTTATCACGTGTTCCT", "relative binding free energy": 0.31}
{"sequence": "GGCTGCACGTGCGGGC", "relative binding free energy": 0}
{"sequence": "GGGCTCACGTGGTGTA", "relative binding free energy": 0.17}
{"sequence": "GAGGGCACGTGGGGGA", "relative binding free energy": -0.16}
{"sequence": "ACGTGCACGTGGCAGG", "relative binding free energy": -0.22}
{"sequence": "TGGAACACGTGTAGTG", "relative binding free energy": 0.04}
{"sequence": "GTGGGCACGTGGGCGC", "relative binding free energy": -0.15}
{"sequence": "TGTATCACGTGTTGGG", "relative binding free energy": 0.18}
{"sequence": "TTTGTCACGTGCGGGC", "relative binding free energy": 0.17}
{"sequence": "GAAATCACGTGATGGG", "relative binding free energy": 0.25}
{"sequence": "CGTTGCACGTGAACGG", "relative binding free energy": 0.23}
{"sequence": "TTAATCACGTGAGAGG", "relative binding free energy": 0.29}
{"sequence": "GGTTCCACGTGGGTGT", "relative binding free energy": -0.1}
{"sequence": "TTTTGCACGTGTCGGT", "relative binding free energy": -0.08}
{"sequence": "TTGTGCACGTGGACTT", "relative binding free energy": 0.03}
{"sequence": "GGGAACACGTGGAGGT", "relative binding free energy": 0.06}
{"sequence": "TGCGTCACGTGGTAAA", "relative binding free energy": 0.07}
{"sequence": "AGGGGCACGTGGCAAT", "relative binding free energy": -0.24}
{"sequence": "GGGCGCACGTGATAGG", "relative binding free energy": 0.04}
{"sequence": "GCGTGCACGTGATTGG", "relative binding free energy": 0.05}
{"sequence": "TTGCACACGTGAGTTT", "relative binding free energy": 0.22}
{"sequence": "AGGGGCACGTGAGAGC", "relative binding free energy": 0.07}
{"sequence": "GGGCTCACGTGTTAAG", "relative binding free energy": 0.26}
{"sequence": "ATAAGCACGTGTGATT", "relative binding free energy": -0.09}
{"sequence": "GGCAGCACGTGGTACG", "relative binding free energy": -0.1}
{"sequence": "TAGGGCACGTGAGCGG", "relative binding free energy": 0.12}
{"sequence": "GAGTGCACGTGTTTGC", "relative binding free energy": 0.03}
{"sequence": "TATAACACGTGATTGT", "relative binding free energy": 0.15}
{"sequence": "GTGTTCACGTGTTGAG", "relative binding free energy": 0.22}
{"sequence": "CAGATCACGTGGTAGG", "relative binding free energy": 0.01}
{"sequence": "GCTTTCACGTGGTCGG", "relative binding free energy": 0.15}
{"sequence": "GGTGGCACGTGAGGTA", "relative binding free energy": 0.18}
{"sequence": "AATTTCACGTGTGGTA", "relative binding free energy": 0.25}
{"sequence": "TACGTCACGTGGTGGG", "relative binding free energy": 0.07}
{"sequence": "GTGTGCACGTGAGACT", "relative binding free energy": 0.09}
{"sequence": "GTTGGCACGTGGCTCA", "relative binding free energy": -0.11}
{"sequence": "ATGTACACGTGGGGCG", "relative binding free energy": -0.12}
{"sequence": "TGAGGCACGTGGTATC", "relative binding free energy": -0.2}
{"sequence": "GGTCGCACGTGTGTAA", "relative binding free energy": 0.03}
{"sequence": "AGTTTCACGTGAAGAA", "relative binding free energy": 0.26}
{"sequence": "TGTAACACGTGGGCTA", "relative binding free energy": -0.18}
{"sequence": "AATAGCACGTGTACGG", "relative binding free energy": 0}
{"sequence": "TTGTGCACGTGGTCCG", "relative binding free energy": -0.19}
{"sequence": "TGAAGCACGTGAGTGT", "relative binding free energy": 0.2}
{"sequence": "GATTACACGTGTTTGA", "relative binding free energy": 0.25}
{"sequence": "TGGCGCACGTGGGGTG", "relative binding free energy": -0.16}
{"sequence": "TTGTACACGTGAAATG", "relative binding free energy": 0.2}
{"sequence": "TGTATCACGTGATGTC", "relative binding free energy": 0.28}
{"sequence": "GAAGGCACGTGTAGTT", "relative binding free energy": 0.01}
{"sequence": "TTTTACACGTGAGGGC", "relative binding free energy": 0.35}
{"sequence": "GGGTTCACGTGGTGCA", "relative binding free energy": 0.27}
{"sequence": "GTGCGCACGTGTGATA", "relative binding free energy": 0.09}
{"sequence": "TGTTCCACGTGCTGGT", "relative binding free energy": -0.04}
{"sequence": "AATGACACGTGTTATT", "relative binding free energy": 0.13}
{"sequence": "ACAGTCACGTGTTGGG", "relative binding free energy": 0.11}
{"sequence": "GTTGGCACGTGATGTC", "relative binding free energy": 0.12}
{"sequence": "TAAATCACGTGATTGG", "relative binding free energy": 0.33}
{"sequence": "ACATGCACGTGTGAGT", "relative binding free energy": 0.05}
{"sequence": "GTAGACACGTGTGTCG", "relative binding free energy": 0.06}
{"sequence": "GGTCTCACGTGAGTGC", "relative binding free energy": 0.38}
{"sequence": "TTTGTCACGTGCTTTT", "relative binding free energy": 0.08}
{"sequence": "AGCCGCACGTGTGGTT", "relative binding free energy": -0.03}
{"sequence": "AAAAACACGTGGGTTG", "relative binding free energy": -0.04}
{"sequence": "GGTAGCACGTGACGGA", "relative binding free energy": 0.24}
{"sequence": "CCTGGCACGTGGGAGG", "relative binding free energy": -0.18}
{"sequence": "TTATGCACGTGAGGTG", "relative binding free energy": 0.11}
{"sequence": "GTGTGCACGTGCTGTG", "relative binding free energy": 0}
{"sequence": "ATGTTCACGTGTATGG", "relative binding free energy": 0.35}
{"sequence": "TGTGTCACGTGCTTGC", "relative binding free energy": -0.06}
{"sequence": "GCTTGCACGTGGTTGT", "relative binding free energy": -0.05}
{"sequence": "CGATTCACGTGTCGGG", "relative binding free energy": 0.27}
{"sequence": "TAAGTCACGTGGGCAG", "relative binding free energy": -0.07}
{"sequence": "GAAGGCACGTGTTGGA", "relative binding free energy": -0.05}
{"sequence": "TTCAGCACGTGTGTCT", "relative binding free energy": 0.02}
{"sequence": "GTCGCCACGTGGGGGC", "relative binding free energy": -0.1}
{"sequence": "TAGGGCACGTGCGGTG", "relative binding free energy": -0.28}
{"sequence": "GGGGCCACGTGGGGGA", "relative binding free energy": -0.14}
{"sequence": "CTGGTCACGTGAAGCG", "relative binding free energy": 0.19}
{"sequence": "TACTTCACGTGTTGGT", "relative binding free energy": 0.33}
{"sequence": "GTAGTCACGTGCGGTC", "relative binding free energy": 0.15}
{"sequence": "CTGGGCACGTGAAATT", "relative binding free energy": 0.22}
{"sequence": "TTGATCACGTGACTGT", "relative binding free energy": 0.31}
{"sequence": "AGGAACACGTGTGTGA", "relative binding free energy": 0.08}
{"sequence": "TGAAGCACGTGCTGTT", "relative binding free energy": -0.26}
{"sequence": "AGAAGCACGTGAGGTC", "relative binding free energy": 0.25}
{"sequence": "TAAGGCACGTGGTGGT", "relative binding free energy": -0.07}
{"sequence": "AAAGTCACGTGTGGGG", "relative binding free energy": 0.14}
{"sequence": "GTTGCCACGTGTGAGG", "relative binding free energy": -0.09}
{"sequence": "TGTAGCACGTGGTATG", "relative binding free energy": -0.11}
{"sequence": "TAGTTCACGTGTGCGC", "relative binding free energy": 0.34}
{"sequence": "TTGCCCACGTGGGGGG", "relative binding free energy": -0.31}
{"sequence": "ATGAGCACGTGGAATG", "relative binding free energy": -0.12}
{"sequence": "AAGGTCACGTGGTGTA", "relative binding free energy": -0.03}
{"sequence": "ATGTTCACGTGACCGG", "relative binding free energy": 0.26}
{"sequence": "CTCGTCACGTGGGTTG", "relative binding free energy": 0.07}
{"sequence": "AAAGTCACGTGGGGGA", "relative binding free energy": -0.05}
{"sequence": "AACGACACGTGGGGGG", "relative binding free energy": 0}
{"sequence": "TGTAGCACGTGGCGCG", "relative binding free energy": -0.24}
{"sequence": "GTGTTCACGTGTAAAA", "relative binding free energy": 0.26}
